# Source: PMC3326058
# Amino acid sequences for entries named in this document (tags omitted).
# UniProt P41229: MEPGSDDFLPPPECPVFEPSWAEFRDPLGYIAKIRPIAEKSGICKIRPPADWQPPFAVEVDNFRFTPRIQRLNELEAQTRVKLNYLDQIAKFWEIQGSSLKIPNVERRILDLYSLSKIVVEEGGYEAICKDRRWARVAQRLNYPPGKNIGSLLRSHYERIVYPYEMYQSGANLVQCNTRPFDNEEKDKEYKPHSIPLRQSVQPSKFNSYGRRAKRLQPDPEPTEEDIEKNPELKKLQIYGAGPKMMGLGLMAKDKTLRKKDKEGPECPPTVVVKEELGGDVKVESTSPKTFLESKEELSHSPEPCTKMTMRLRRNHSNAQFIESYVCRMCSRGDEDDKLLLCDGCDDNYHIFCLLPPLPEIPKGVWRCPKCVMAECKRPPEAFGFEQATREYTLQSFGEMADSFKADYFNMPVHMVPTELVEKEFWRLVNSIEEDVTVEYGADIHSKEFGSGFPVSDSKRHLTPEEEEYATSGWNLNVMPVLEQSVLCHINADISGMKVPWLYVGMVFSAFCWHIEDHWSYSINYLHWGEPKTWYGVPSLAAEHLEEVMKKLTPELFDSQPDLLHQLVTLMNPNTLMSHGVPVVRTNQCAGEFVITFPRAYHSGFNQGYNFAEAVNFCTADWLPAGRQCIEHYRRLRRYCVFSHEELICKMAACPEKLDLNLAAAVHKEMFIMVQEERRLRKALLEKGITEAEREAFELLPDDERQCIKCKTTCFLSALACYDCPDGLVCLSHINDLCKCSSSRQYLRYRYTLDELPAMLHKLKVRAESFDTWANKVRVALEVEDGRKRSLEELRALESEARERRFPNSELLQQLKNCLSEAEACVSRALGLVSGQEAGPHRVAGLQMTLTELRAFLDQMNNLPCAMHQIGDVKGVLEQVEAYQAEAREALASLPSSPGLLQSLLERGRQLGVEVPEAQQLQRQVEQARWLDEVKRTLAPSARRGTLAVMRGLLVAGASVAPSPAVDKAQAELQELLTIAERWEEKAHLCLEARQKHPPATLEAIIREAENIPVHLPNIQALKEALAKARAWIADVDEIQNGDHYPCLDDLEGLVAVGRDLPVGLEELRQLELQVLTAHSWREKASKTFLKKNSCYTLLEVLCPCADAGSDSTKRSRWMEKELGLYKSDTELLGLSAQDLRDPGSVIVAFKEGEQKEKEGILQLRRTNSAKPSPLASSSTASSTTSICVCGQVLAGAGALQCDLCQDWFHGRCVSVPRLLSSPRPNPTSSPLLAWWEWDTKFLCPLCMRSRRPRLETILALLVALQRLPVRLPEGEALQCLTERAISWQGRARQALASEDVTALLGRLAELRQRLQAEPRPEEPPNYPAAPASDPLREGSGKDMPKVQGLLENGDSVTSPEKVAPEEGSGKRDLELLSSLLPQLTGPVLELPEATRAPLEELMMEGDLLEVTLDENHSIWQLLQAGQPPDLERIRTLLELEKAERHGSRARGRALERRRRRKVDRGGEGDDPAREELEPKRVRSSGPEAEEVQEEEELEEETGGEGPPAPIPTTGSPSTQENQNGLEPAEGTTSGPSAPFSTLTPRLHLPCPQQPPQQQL
# These are yes or no findings as the source states them, for the method shown. Binding seen in cells or lysates may run through a third protein. Some binding calls cover weakened binding; strength is not graded here. For some of these results: Sequences can lack the tags named with a protein.
# Assays:
# Experiment in all cases: co-IP; reverse order: Flag-tagged JMJD protein or JMJD2D fragment and p53 coexpressed in HEK293T; lysis in 50 mM Tris-HCl pH 7.4, 150 mM NaCl, 0.5% NP-40; anti-Flag (M2) immunoprecipitation, anti-p53 (DO-1) Western blot
# [1] = molecular target: Flag-tagged SMCX (UniProt P41229)
# [2] = molecular target: T1, Flag-tagged JMJD2D amino acids 241-523 (human) (UniProt Q6B0I6)
# T1 sequence: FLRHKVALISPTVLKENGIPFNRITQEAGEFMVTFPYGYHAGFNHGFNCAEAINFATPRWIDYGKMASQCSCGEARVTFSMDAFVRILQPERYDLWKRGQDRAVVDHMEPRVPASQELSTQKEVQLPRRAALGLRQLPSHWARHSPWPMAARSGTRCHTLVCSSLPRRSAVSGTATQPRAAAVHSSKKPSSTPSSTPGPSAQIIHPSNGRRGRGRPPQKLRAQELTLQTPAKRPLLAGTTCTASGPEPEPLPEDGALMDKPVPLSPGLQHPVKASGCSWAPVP
# [3] = molecular target: T2, Flag-tagged JHDM1A (UniProt Q9Y2K7)
# T2 sequence: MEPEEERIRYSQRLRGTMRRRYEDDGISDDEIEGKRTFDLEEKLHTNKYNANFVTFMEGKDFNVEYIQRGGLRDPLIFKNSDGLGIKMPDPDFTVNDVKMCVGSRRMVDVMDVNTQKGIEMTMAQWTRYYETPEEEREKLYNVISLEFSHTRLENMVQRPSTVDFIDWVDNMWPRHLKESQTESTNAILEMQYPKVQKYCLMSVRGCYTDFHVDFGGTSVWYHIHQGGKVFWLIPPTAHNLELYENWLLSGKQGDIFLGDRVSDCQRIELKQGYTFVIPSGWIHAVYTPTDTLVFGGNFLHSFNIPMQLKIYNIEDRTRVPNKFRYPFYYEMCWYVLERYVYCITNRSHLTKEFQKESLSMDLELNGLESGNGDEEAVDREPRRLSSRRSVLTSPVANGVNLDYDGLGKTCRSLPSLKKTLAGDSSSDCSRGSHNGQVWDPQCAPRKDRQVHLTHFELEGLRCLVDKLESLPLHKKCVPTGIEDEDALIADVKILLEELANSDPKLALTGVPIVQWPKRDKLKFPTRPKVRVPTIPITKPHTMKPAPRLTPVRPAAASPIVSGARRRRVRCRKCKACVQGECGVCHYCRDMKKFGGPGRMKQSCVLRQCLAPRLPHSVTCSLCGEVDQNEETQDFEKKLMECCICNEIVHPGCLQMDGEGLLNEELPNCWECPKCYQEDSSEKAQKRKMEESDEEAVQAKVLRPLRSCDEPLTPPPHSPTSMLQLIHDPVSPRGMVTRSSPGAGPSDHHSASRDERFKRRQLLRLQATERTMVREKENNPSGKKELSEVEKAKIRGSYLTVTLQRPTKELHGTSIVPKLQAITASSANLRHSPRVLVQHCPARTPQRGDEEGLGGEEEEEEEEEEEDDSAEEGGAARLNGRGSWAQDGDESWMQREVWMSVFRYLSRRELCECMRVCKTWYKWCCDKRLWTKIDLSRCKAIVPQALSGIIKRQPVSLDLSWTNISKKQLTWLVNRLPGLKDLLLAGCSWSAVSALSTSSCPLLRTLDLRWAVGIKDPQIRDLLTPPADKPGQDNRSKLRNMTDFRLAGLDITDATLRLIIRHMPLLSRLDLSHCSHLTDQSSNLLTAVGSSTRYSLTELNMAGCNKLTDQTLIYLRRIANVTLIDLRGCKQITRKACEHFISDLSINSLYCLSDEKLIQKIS
# [4] = molecular target: T3, Flag-tagged JMJD2D N-terminal 354 amino acids (human) (UniProt Q6B0I6)
# T3 sequence: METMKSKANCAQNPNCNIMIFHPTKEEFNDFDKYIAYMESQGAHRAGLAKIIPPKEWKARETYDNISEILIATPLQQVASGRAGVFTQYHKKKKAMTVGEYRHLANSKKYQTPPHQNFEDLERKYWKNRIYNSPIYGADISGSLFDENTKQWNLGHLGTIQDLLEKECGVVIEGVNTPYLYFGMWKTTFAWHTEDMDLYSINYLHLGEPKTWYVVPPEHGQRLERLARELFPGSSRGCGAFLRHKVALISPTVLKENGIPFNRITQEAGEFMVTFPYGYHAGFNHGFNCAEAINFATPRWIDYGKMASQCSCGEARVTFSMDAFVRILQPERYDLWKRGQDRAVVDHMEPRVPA
substance,measurement,setting,value
p53 (expressed from pcDNA3-p53) (from UniProt P04637 1-393),binding,[1],no binding
same,binding,[2],binds
same,binding,[3],no binding
same,binding,[4],no binding
